Experimental data as given in paper PMC6919601, “Identification of Plasmodium dipeptidyl aminopeptidase allosteric inhibitors by high throughput screening” (PLoS ONE, 2019).
Hit rate of the full screen: of about 110,000 compounds, about 230 (0.21%) showed an effect of 50% or more. Some of the results follow.

biological target: DPAP1 (Plasmodium falciparum, UniProt Q8IIJ9); assay: primary screen, percent inhibition; read by cleavage of a fluorogenic dipeptide substrate; higher = more effect of the substance; parameters: species or system P. falciparum D10 trophozoite lysates; single well
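Also: 30 min substrate incubation versus DMSO and 10 µM JCP410 controls.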

Chain of DPAP1 (Q8IIJ9 whole entry, looked up): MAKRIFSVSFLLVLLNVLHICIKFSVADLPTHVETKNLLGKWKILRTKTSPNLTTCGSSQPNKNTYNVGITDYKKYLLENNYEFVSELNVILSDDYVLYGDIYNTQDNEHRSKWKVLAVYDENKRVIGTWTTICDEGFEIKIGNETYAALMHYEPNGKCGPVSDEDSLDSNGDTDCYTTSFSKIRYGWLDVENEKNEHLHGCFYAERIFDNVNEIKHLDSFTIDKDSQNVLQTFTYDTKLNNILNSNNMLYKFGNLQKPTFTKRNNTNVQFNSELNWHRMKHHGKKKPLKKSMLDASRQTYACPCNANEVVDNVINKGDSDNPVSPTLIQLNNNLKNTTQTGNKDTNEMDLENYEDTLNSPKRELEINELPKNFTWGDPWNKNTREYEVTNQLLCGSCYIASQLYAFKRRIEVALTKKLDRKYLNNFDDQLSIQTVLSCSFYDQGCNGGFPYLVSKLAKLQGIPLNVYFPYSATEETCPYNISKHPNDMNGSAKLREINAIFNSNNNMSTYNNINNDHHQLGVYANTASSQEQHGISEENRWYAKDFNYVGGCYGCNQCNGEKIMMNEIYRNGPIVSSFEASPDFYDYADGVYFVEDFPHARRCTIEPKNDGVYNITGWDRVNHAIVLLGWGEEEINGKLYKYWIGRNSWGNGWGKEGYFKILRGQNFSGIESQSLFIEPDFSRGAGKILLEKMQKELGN

Going from CC(=O)Nc1sc(C)c(C)c1C#N to CC1=C(C(=O)Nc2cccc(C)c2C)C(c2ccccc2Cl)NC(=O)N1 (stereo not shown), the “% Inhibition @ 10 uM” value falls from 1.41% to -10.2%.

First: Cc1ccc(-c2nnc(N3CCCCC3)c3ccccc23)cc1S(=O)(=O)NCC1CCCO1 (stereo not shown)
Second: NC(=O)C1CCN(c2nc3c(S(=O)(=O)c4cccc(Cl)c4)nnn3c3ccsc23)CC1
The “% Inhibition @ 10 uM” value of the first is higher: 4.18% for the first, -8.1% for the second.

Compared with C=CCOC(=O)C1=C(C)N(CC)C(=O)NC1c1cc(Br)c(O)c(OC)c1 (stereo not shown), C=CCNC(=O)CN(c1cc(OC)ccc1OC)S(C)(=O)=O is lower in “% Inhibition @ 10 uM” value: 8.79% for the first, -3.48% for the second.

First: CC(C)C[C@H](NC(=O)Nc1nc(-c2ccccc2)cs1)C(=O)NCC#N
Second: C[C@@H](C[C@H](NC(=O)c1ccc(-c2cc(C(=O)O)ccc2Cl)cc1)C(=O)NC1(C#N)CCOCC1)c1ccccc1
The “% Inhibition @ 10 uM” value of the first is higher: -0.778% for the first, -1.5% for the second.

Compared with O=C(O)C1Cc2c([nH]c3ccccc23)C(c2ccc(Br)cc2)N1 (stereo not shown), NC(=O)C(=O)c1cn(Cc2ccccc2)c2ccccc12 is higher in “% Inhibition @ 10 uM” value: 4.41% for the first, 7.51% for the second.

Compared with CSc1nn(-c2cc(Oc3ccccc3)nc(C)n2)c(N)c1C#N, Cc1cccc2cc(-c3ccccn3)nc(N)c12 is higher in “% Inhibition @ 10 uM” value: -11% for the first, 0.245% for the second.

Going from Cc1nn(C)cc1C(=O)Nc1ccc2c(c1)CCC2 to CCOC(=O)c1c(NC(=S)NC(=O)c2cccnc2)sc2c1CCCC2, the “% Inhibition @ 10 uM” value rises from -7.3% to 2.41%.

Compared with COc1ccc(C(=O)NCc2ccc(C)cc2)cc1OC, COc1ccc(C2C(C(=O)c3ccc(C)cc3)=C(O)C(=O)N2c2ccccc2)cc1OC (stereo not shown) is lower in “% Inhibition @ 10 uM” value: 4.22% for the first, -12.2% for the second.

First: O=C(c1cc2c(s1)-c1ccc(Cl)cc1S(=O)(=O)C2)N1CCC2(CC1)OCCO2
Second: Cc1c(C(=O)N2CCCC2)oc2c1-c1nn(CC(=O)N3CCC4(CC3)OCCO4)cc1CC2
The “% Inhibition @ 10 uM” value of the first is lower: -4.24% for the first, 3.08% for the second.

Going from Cc1ccc(S(=O)(=O)n2nc(-c3ccco3)nc2N)cc1 to CC1CN(S(=O)(=O)c2ccc(-c3ccc(Cl)cc3)cc2)CC(C)O1 (stereo not shown), the “% Inhibition @ 10 uM” value rises from -1.92% to 3.9%.

Going from CSc1ncc(C(=O)NCCc2c[nH]c3ccccc23)c(C)n1 to CCOc1ccc(CCNC(=O)c2cc3c(s2)-c2ccccc2OC3)cc1, the “% Inhibition @ 10 uM” value falls from 1.11% to -3.08%.

Going from CC(Cc1ccccc1)Nc1nc2c(S(=O)(=O)c3ccccc3)nnn2c2ccsc12 (stereo not shown) to Cc1nnc(NC(=O)c2cccn(OCc3ccccc3)c2=O)s1, the “% Inhibition @ 10 uM” value falls from 0.581% to -1.66%.

First: Cc1ccc(-n2c(/C=C/N(C)C)c([N+](=O)[O-])c3ccc(O)c(CN(C)C)c32)cc1
Second: Cc1cccc(CSCCNS(=O)(=O)c2ccc3c(c2)OCCO3)c1
The “% Inhibition @ 10 uM” value of the first is higher: -1.42% for the first, -5.01% for the second.

Compared with COC(=S)NC(=O)Cc1ccccc1Cl, Clc1cccc(CN2CCOCC2)c1Cl is lower in “% Inhibition @ 10 uM” value: 5.03% for the first, 1.62% for the second.

Compared with N#C/C(=C\c1ccccc1Cl)c1nc(-c2ccc(Cl)c(Cl)c2)cs1, O=C(/C=C/c1ccccc1)n1nnc2ccccc21 is higher in “% Inhibition @ 10 uM” value: -0.736% for the first, 4.41% for the second.

First: O=C1N=C(N2CCOCC2)S/C1=C\c1ccco1
Second: O=C(CCCCC(=O)N1CCc2ccccc21)N1CCc2ccccc21
The “% Inhibition @ 10 uM” value of the first is lower: -5.28% for the first, -4.01% for the second.

Compared with COc1ccc(CCNC(=O)CCc2c(C)nc3nc(C)nn3c2C)c(OC)c1, COc1cc2c(C(=O)NCC3CCCO3)cn(CC(C)C)c(=O)c2cc1OC (stereo not shown) is lower in “% Inhibition @ 10 uM” value: 2.93% for the first, -2.59% for the second.

Compared with CNCC12CC3CC(C1)CC(c1ccc(C)cc1)(C3)C2, Cc1cc(OCC(=O)Nc2ccc(S(=O)(=O)N3CCC(C)CC3)cc2)ccc1Br is lower in “% Inhibition @ 10 uM” value: -0.68% for the first, -3.43% for the second.

Going from COc1cccc(CSc2nncn3c2cc2occc23)c1 to COc1ccc(CNC(=O)C2Sc3nnc(C)n3NC2c2ccc(Cl)cc2)cc1 (stereo not shown), the “% Inhibition @ 10 uM” value falls from 0.616% to 0.0289%.

Going from CCN(CC)c1ccc(NC(=O)C(C)(C)C)cc1 to C=C(C)CN(CC)Cc1cc(Cl)ccc1[N+](=O)[O-], the “% Inhibition @ 10 uM” value rises from -3.63% to -0.0494%.

Compared with Nc1nnc(-c2ccc([N+](=O)[O-])cc2)s1, Cc1nn(CC(=O)Nc2ccc(Br)cn2)c(=O)c2cccn12 is higher in “% Inhibition @ 10 uM” value: -0.0369% for the first, 0.0811% for the second.

Compared with Cc1cc(=O)oc2c(C)c3occ(C(C)(C)C)c3cc12, CCCOc1ccc(CNC(=O)Cn2nc(C)n3cccc3c2=O)cc1 is lower in “% Inhibition @ 10 uM” value: 2.21% for the first, -4.95% for the second.

Compared with COC(=O)C12CCC3(SCCS3)C(C(=O)OC)(CCC13SCCS3)C2, CN(C(=O)c1cc(S(=O)(=O)N2CCCCC2)c[nH]1)C1CCCCC1 is higher in “% Inhibition @ 10 uM” value: 0.00784% for the first, 7.63% for the second.

First: CC(C)N(CC#CC(O)(c1ccccc1)c1ccccc1)C(C)C
Second: O=C(NCc1ccc(Cl)cc1)C1CCCN(S(=O)(=O)c2ccc3nc(O)ccc3c2)C1 (stereo not shown)
The “% Inhibition @ 10 uM” value of the first is higher: -2.15% for the first, -3.73% for the second.

CN(C)/C=C/C=C1\CC/C(=C\C=C\N(C)C)C1=O was tested, and the “% Inhibition @ 10 uM” value was 3.25%.
